# Data from PubChem BioAssay AID504832 (National Center for Advancing Translational Sciences (NCATS), 2011).
# The whole screen tested about 310,000 compounds, of which about 18,000 (5.8%) were called active. This list was built around the results that the source calls inconclusive (neither active nor inactive); the mix of calls is not that of the screen. The call rests on the fitted dose curve; in most records, active means well fitted inhibition curve with a large enough effect; inconclusive means small, poorly fitted or top-dose-only effect, or another doubt; inactive means no such curve, though single readings can be large or run the other way. Potencies of inconclusive entries are left out as doubtful fits.
# Assay: Primary qHTS for delayed death inhibitors of the malarial parasite plastid, 48 hour incubation
# Settings: P. falciparum luciferase growth in erythrocytes; series mostly up to 28.7 µM
# Procedure, shortened: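 Compounds are pin-transferred into medium, infected erythrocytes (2% hematocrit, 0.1% parasitemia final) are added, and plates sit one parasite generation at 37 C in 5% CO2. Detection reagent is then added and luminescence measured.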
# Potency means the concentration at half of the fitted maximal effect; tags describe the fitted curve by direction and shape.
row,SMILES,Potency
1,c1ccc(CSc2nnc3ccc(-c4ccco4)nn23)nc1,inactive
2,O=C(Nc1ccc(S(=O)(=O)NCc2ccco2)cc1)c1ccc2ccccc2n1,"inconclusive [inhibitor, single point]"
3,COc1ccc(-c2cc(C(F)(F)F)nc(NCc3ccco3)n2)cc1OC,"inconclusive [inhibitor, single point]"
4,CN(C(=O)c1cccc(Nc2ccc(-c3ccc4c(c3)OCCO4)nn2)c1)C1CCCCC1,"inconclusive [inhibitor, single point]"
5,COc1ccc(NC(=O)CN(C)CC(=O)Nc2cccc3ccccc23)c(OC)c1,"inconclusive [inhibitor, single point]"
6,COc1cc(C(=O)N/C(=C\c2cn(S(=O)(=O)N(C)C)c3ccccc23)C(=O)N2CCCC2)cc(OC)c1OC,"inconclusive [inhibitor, partial curve]"
7,COc1ccc(N2CCN(S(=O)(=O)CCNC(=O)/C=C/c3ccccc3)CC2)cc1,inactive
8,COc1ccc(CN(Cc2ccc(C(=O)O)cc2)C(=S)Nc2ccc(C)cc2)cc1OC,inactive
9,CCOC(=O)C1CCN(C(=O)C2CCCN(c3ncnc4c3nc3n4CCCCC3)C2)CC1 (stereo not given),"inconclusive [inhibitor, single point]"
10,Cc1oc(-c2ccccc2Cl)nc1CN1CCCC1c1ccc(F)cc1 (stereo not given),"inconclusive [inhibitor, partial curve]"
11,Clc1nc(Cl)nc(NCCC2=CCCCC2)n1,"inconclusive [inhibitor, full curve, poor fit]"
12,COc1ccc(NS(=O)(=O)c2ccc(C(=O)N(C)Cc3cccs3)cc2)cc1,"inconclusive [inhibitor, single point]"
13,COc1ccc2cc(C(=O)N3CCCC(Nc4ccc(F)cc4)C3)n(C)c2c1 (stereo not given),inactive
14,COc1ccc(/C=C/C(=O)c2cc(Cl)ccc2O)c(OC)c1,"inconclusive [inhibitor, single point]"
15,CC(C)c1ccc(N2C(=O)/C(=C/N(C)C)SC2=S)cc1,"inconclusive [inhibitor, single point]"
16,CCS(=O)(=O)N1N=C(c2cccc(NS(C)(=O)=O)c2)CC1c1cccs1 (stereo not given),inactive
17,O=C(CSc1nccc(=O)[nH]1)Nc1cc(C(F)(F)F)ccc1N1CCOCC1,inactive
18,NN(Cc1ccccc1)C(=S)Nc1ccc(Cl)c(Cl)c1,inactive
19,CCOC(=O)N1CCN(C(=O)CSc2ccc(-c3ccc(OC)cc3)nn2)CC1,"inconclusive [inhibitor, partial curve, poor fit]"
20,COc1ccc(C(c2c(O)nc[nH]c2=O)c2c(O)nc[nH]c2=O)cc1,inactive
21,COc1cccc(/C=C/C(=O)OCC(=O)c2ccc(C)c(C)c2)c1OC,inactive
22,O=C1CNC(=O)/C(=C\c2ccccc2)N1,inactive
23,Cc1cc(C(=O)CC#N)c(C)n1-c1ccc(OC(F)F)cc1,"inconclusive [inhibitor, single point]"

row,SMILES,Potency
1,CCc1noc(C)c1C(=O)OCC(=O)Nc1nc(-c2ccc(F)c(F)c2)cs1,"inconclusive [inhibitor, single point]"
2,CC(=O)c1c(N2CCCCC2)nc(=S)n(-c2ccccc2)c1C,inactive
3,CCC(OC(=O)c1ccco1)C(=O)NCc1ccc(OC)cc1 (stereo not given),inactive
4,O=C(COc1coc(CN2CCN(c3ccccc3)CC2)cc1=O)NC1CCCCC1,active: 11.7 µM
5,Fc1ccc(C(c2nnnn2C2CCCC2)N(Cc2ccco2)CC2CCCO2)cc1 (stereo not given),"inconclusive [inhibitor, single point]"
6,COC(=O)C1=C(c2ccc(-c3ccccc3)c(F)c2)C[C@@H]2CC[C@H]1N2C(=O)NCCCOC(C)C,"inconclusive [inhibitor, partial curve]"
7,CCc1ccc2[nH]c(=O)c(C3C(C#N)=C(N)Oc4c3ccc3cccnc43)cc2c1 (stereo not given),"inconclusive [inhibitor, partial curve, poor fit]"
8,CSc1cccc(NC(=O)Nc2ccccc2C(N)=O)c1,"inconclusive [inhibitor, single point]"
9,O=C(Nc1cccc(Br)c1)c1c(O)c2c(n(Cc3ccccc3)c1=O)CCCC2,"inconclusive [inhibitor, single point]"
10,O=[N+]([O-])c1ccc(/C=N/N2CCN(c3ccncc3S(=O)(=O)N3CCCCC3)CC2)cc1,"inconclusive [inhibitor, full curve]"
11,Cc1cc(C)nc(-n2nc(C)cc2NC(=O)CN2CCC(C)CC2)n1,"inconclusive [inhibitor, partial curve, poor fit]"
12,O=C(c1ccc([N+](=O)[O-])o1)N(Cc1nnc(-c2ccccc2Cl)o1)C1CC1,"inconclusive [inhibitor, single point]"
13,COC(=O)C1(Cc2cc(-c3ccc(Cl)cc3)no2)CCN(C(=O)OC(C)(C)C)CC1,inactive
14,Cc1cc(C)nc(-n2nc(C)cc2NC(=O)CNC(C)c2ccccc2)n1 (stereo not given),"inconclusive [inhibitor, single point]"
15,CN(Cc1ccccc1)C(=O)CCNS(=O)(=O)c1ccc2c(c1)oc(=O)n2C,inactive
16,O=C(Cn1nnc(-c2ccccc2NC(=O)c2ccco2)n1)Nc1ccccc1,inactive
17,Cc1nn(-c2ccccc2)c(C)c1NC(=O)COc1ccc(Cl)cc1Cl,inactive
18,Cc1ccc(C(=O)NCCNS(=O)(=O)c2ccccc2[N+](=O)[O-])cc1,"inconclusive [inhibitor, full curve, poor fit]"
19,O=C(O)/C=C\C(=O)Nc1ccccc1C#Cc1ccccc1,inactive
20,O=C(Nc1cccc(C(=O)O)c1)/C(=C\c1ccc2c(c1)OCO2)NC(=O)c1ccco1,inactive
21,Brc1ccc(C2Nc3cccc4cccc(c34)N2)s1,"inconclusive [inhibitor, single point]"
22,Cc1c(C(=O)NC(=S)Nc2ccc3c4c(cccc24)CC3)cccc1[N+](=O)[O-],"inconclusive [inhibitor, single point]"
